Assay results published in the supplement of paper PMC11417369.
± gives the standard deviation of the averaged measurements. Some of the results follow.

What follows are sequences tested on PfAP2-I AP2 domain 3 (GST-tagged) (assay: gcPBM binding intensity (ln(normalized median fluorescence intensity)); higher = stronger DNA binding).
How it was run: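 GST-tagged P. falciparum DNA-binding domains, expressed in E. coli (about 25 μg on average), were applied for 1 h to an Agilent 4 × 180k array of primer-extended double-stranded 36-bp intergenic genomic probes plus negative controls. The binding buffer was 1× PBS with 1% milk, 0.2 mg/ml BSA, 0.5% salmon testes DNA and 0.03% Triton X-100. Bound protein was detected with Alexa488 anti-GST antibody and scanned at 488 nm. Binding intensity is the highest Masliner-normalised natural-log median intensity across replicate spots of either probe orientation.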
With “AGTTTGTCAATCAACACACACCTATTTATTATAGAT [CACACA_site7777]” the “gcPBM binding intensity (ln)” value was 7.61 ± 0.62. “TATTTATTCTCCAACACACACACATATATTTATATA [CACACA_site7376]” was tested, and the “gcPBM binding intensity (ln)” value was 7.93 ± 0.43. In the case of “AAAAATGAGTGACACACACACATATAAATATAAATA [CACACA_site7115]”, the “gcPBM binding intensity (ln)” value is reported as 7.62 ± 0.33. For “AAATCAAACTTTGGTGTGCACAAATATATACATATA [GTGCAC_site9986]”, the “gcPBM binding intensity (ln)” value was 10.545 ± 0.007. With “TTTTTTTTACATTCTGCACACAATTTATTTTTTTTT [CACACA_site36]” the “gcPBM binding intensity (ln)” value was 9.19 ± 0.52. “TTATATGTTTTACAACGTACACAAAAAAAACTTATA [XGTACX_site4413]” was tested, and the “gcPBM binding intensity (ln)” value was 7.83 ± 0.23. For “CATTTTTACCGGTACTGTACATAAAAAAAAAAAAAG [XGTACX_site1548]”, the “gcPBM binding intensity (ln)” value was 8.23 ± 0.43. With “TAAAAAAAAAGAAGGGGTACATGGATAATATATAAA [XGTACX_site8386]” the “gcPBM binding intensity (ln)” value was 7.94 ± 0.61. For “GCAGGCTAAAAAATTACACACGAAAAAAATGAATTT [CACACA_site3417]”, the “gcPBM binding intensity (ln)” value was 7.62 ± 0.69. For “CATATATGGTTATATACATGCACCATTATATTATTA [TGCATGCA_site520]”, the “gcPBM binding intensity (ln)” value was 9.1 ± 0.2. “TATATAATATTTTTCACACACCATTTCCTTAAACAC [CACACA_site4862]” was tested, and the “gcPBM binding intensity (ln)” value was 8.265 ± 0.078. In the case of “TGTATAACCTGTGTTACACACATTATGATTTATATA [CACACA_site525]”, the “gcPBM binding intensity (ln)” value is reported as 7.76 ± 0.45. With “GCGAGATGCTAAAATGCATGTTGGGCATTAGTTAAA [TGCATGCA_site586]” the “gcPBM binding intensity (ln)” value was 8.12 ± 0.71. For “TATAATAATTCTTTGAGTACTTAAACATGTGAAATT [XGTACX_site955]”, the “gcPBM binding intensity (ln)” value was 7.85 ± 0.41. With “ATATTAATATATGTGGCACACATGTGGAGTCCTATT [CACACA_site213]” the “gcPBM binding intensity (ln)” value was 8.27 ± 0.62. With “TATCATTTCTAAAAAGGTACACATACATCATATATT [XGTACX_site3386]” the “gcPBM binding intensity (ln)” value was 7.87 ± 0.58. In the case of “AAAAAAATGAAGAAATGTACAAATTTCATTAATTTT [XGTACX_site354]”, the “gcPBM binding intensity (ln)” value is reported as 7.36 ± 0.56. For “GTGTAGTAAAATCGATGTACGTACAAATCAATTATT [XGTACX_site7662]”, the “gcPBM binding intensity (ln)” value was 8.06 ± 0.39. For “TATATATGTAAATGCACACATATGTGGATATACTTA [CACACA_site1699]”, the “gcPBM binding intensity (ln)” value was 10.8 ± 0.17. In the case of “TGAACAGACAAATACACACACTCAAAAAAAAAAAAG [CACACA_site7287]”, the “gcPBM binding intensity (ln)” value is reported as 7.68 ± 0.45. In the case of “GCACTCGTAAAAAGCACACATATAAAAACATTTATA [CACACA_site322]”, the “gcPBM binding intensity (ln)” value is reported as 8.4 ± 0.26. With “CAATGCTTTATCAATACATGCATATATATAGAAATA [TGCATGCA_site857]” the “gcPBM binding intensity (ln)” value was 7.62 ± 0.59. For “TTTTTTCTATTGAGCACACATATCACGATTAGTACT [CACACA_site313]”, the “gcPBM binding intensity (ln)” value was 8.71 ± 0.33. For “GCTCAATTTTTGGGTACACACAAATGTATAATAATA [CACACA_site2388]”, the “gcPBM binding intensity (ln)” value was 8.2 ± 0.18. For “ATATATATTATTTCTACACACATATATATAATATGT [CACACA_site3374]”, the “gcPBM binding intensity (ln)” value was 7.94 ± 0.52. “TTCTTTTTTCAACACACACACACAAGAAAATATATA [CACACA_site9019]” was tested, and the “gcPBM binding intensity (ln)” value was 8.21 ± 0.31. With “CAAAGAGAAATAAACACACACAAAATAAAGAAAAAA [CACACA_site2245]” the “gcPBM binding intensity (ln)” value was 7.71 ± 0.79. With “AAAAAAAAAAAAAAAACACACATATAGATTTATATA [CACACA_site7196]” the “gcPBM binding intensity (ln)” value was 8.72 ± 0.56. With “TTAACAAAACTTTTAACACACAAAAAAAAAAAAAAA [CACACA_site6947]” the “gcPBM binding intensity (ln)” value was 8.01 ± 0.57. For “CTATAATAATAAAGTGAACACACACCGATAATATAT [CACACA_site9377]”, the “gcPBM binding intensity (ln)” value was 7.71 ± 0.7. For “AATTAAATTACTTATACACACATAAAATGCCTGTAT [CACACA_site6597]”, the “gcPBM binding intensity (ln)” value was 7.72 ± 0.6. With “TTATGATATATTTGTTGTACGCTTTTTTTATGAACT [XGTACX_site573]” the “gcPBM binding intensity (ln)” value was 8.17 ± 0.49. In the case of “GTAAGTTGTGCATTCACACACATATAAATATAAATA [CACACA_site7536]”, the “gcPBM binding intensity (ln)” value is reported as 9.56 ± 0.36. For “CATTATGTTGTAAATGCACACATACAAATACATATA [CACACA_site8380]”, the “gcPBM binding intensity (ln)” value was 9.74 ± 0.52. “AACACATACATATATACACACACAAAATAATAAAAT [CACACA_site8724]” was tested, and the “gcPBM binding intensity (ln)” value was 8.08 ± 0.28. With “ATGACCCACTTTTCTGCACACATAAAAAATATATAA [CACACA_site8092]” the “gcPBM binding intensity (ln)” value was 9.485 ± 0.007. For “AAAATCTATAATATAACACACATATATTCTATATGG [CACACA_site7821]”, the “gcPBM binding intensity (ln)” value was 7.39 ± 0.4. In the case of “CATACATACAGACACACACACATATAAATACATACA [CACACA_site6533]”, the “gcPBM binding intensity (ln)” value is reported as 7.96 ± 0.14. “TTCCTGTTAATTACAACACACAATTCTTATTTTATG [CACACA_site6507]” was tested, and the “gcPBM binding intensity (ln)” value was 7.98 ± 0.52. For “ATTTTCAAATTCTATGCATGTGTATATTATAGATAA [TGCATGCA_site1003]”, the “gcPBM binding intensity (ln)” value was 7.96 ± 0.29. “CACACGCACAAAAACACACACAAAGGTGTTCTTATA [CACACA_site6724]” was tested, and the “gcPBM binding intensity (ln)” value was 7.95 ± 0.38. In the case of “AGATATTTCATTTAAAGTACATTCTTTATCACATAA [XGTACX_site6731]”, the “gcPBM binding intensity (ln)” value is reported as 7.79 ± 0.53. For “TTATTTTTTTTTTTTCGTACTTATTTATCTTGGTAT [XGTACX_site78]”, the “gcPBM binding intensity (ln)” value was 7.72 ± 0.47. In the case of “TATATATATATATATGGTACAGTTTATGCCTTTTAA [XGTACX_site6695]”, the “gcPBM binding intensity (ln)” value is reported as 9.52 ± 0.45. With ATTTTCATGATAAAGGTGCAATTATTTTTATAAGAA the “gcPBM binding intensity (ln)” value was 10.9 ± 0.53. “TTATTTATAATATATACACACTAACATTATTTATCC [CACACA_site4835]” was tested, and the “gcPBM binding intensity (ln)” value was 7.66 ± 0.56. For “TATAATATATACAAATGTACATATATATATATATAT [XGTACX_site4559]”, the “gcPBM binding intensity (ln)” value was 9.32 ± 0.23. With “TTCGTATATTATTAATGTACATTATAAAATCAATAT [XGTACX_site5751]” the “gcPBM binding intensity (ln)” value was 7.87 ± 0.28. With “AAAAAAACATGAAACACACACAAATATATATATATA [CACACA_site1884]” the “gcPBM binding intensity (ln)” value was 9.34 ± 0.45. “AACAATATTATTGTTTGTACTCACATATATAATATA [XGTACX_site8063]” was tested, and the “gcPBM binding intensity (ln)” value was 7.63 ± 0.38. For “ATATATATGTGAAAATCACACATTGCTTATCTGTAA [CACACA_site6044]”, the “gcPBM binding intensity (ln)” value was 7.59 ± 0.65. In the case of “TGTTTTATTATTTATAGTACATAAAAAAATATTGTA [XGTACX_site8963]”, the “gcPBM binding intensity (ln)” value is reported as 7.7 ± 0.37. In the case of “AAGGCATACAATACCTGTACGCAACCTTAAAAAGAA [XGTACX_site6070]”, the “gcPBM binding intensity (ln)” value is reported as 7.88 ± 0.53. For “AAAAAAAAAAAAAAAAAAAAAAAAAAAATTCTATAT [GTGCAC_negctrl_site468]”, the “gcPBM binding intensity (ln)” value was 9.995 ± 0.049. In the case of “TTATGTCATAAATGCACACATATATAAATACAGATA [CACACA_site4959]”, the “gcPBM binding intensity (ln)” value is reported as 9.62 ± 0.44. For “TCTTCAAACAAAAAAAATAATAAAAAGTACAAAATG [CACACA_negctrl_site363]”, the “gcPBM binding intensity (ln)” value was 8.07 ± 0.47. “ATATGTGATTTCTAATGTACACAAAAAAAAAAAAAA [XGTACX_site7701]” was tested, and the “gcPBM binding intensity (ln)” value was 8.18 ± 0.47.
